# Experimental data reported in the supplement of paper PMC3334620.
# Over roughly 33,000 sequences, “E-score (-0.5 to 0.5)” has its median near -0.032; the highest 2% begin near 0.36. The list shows a part of the results.
# Biological target: T1, Sko1 (UniProt Q02100)
# T1 sequence: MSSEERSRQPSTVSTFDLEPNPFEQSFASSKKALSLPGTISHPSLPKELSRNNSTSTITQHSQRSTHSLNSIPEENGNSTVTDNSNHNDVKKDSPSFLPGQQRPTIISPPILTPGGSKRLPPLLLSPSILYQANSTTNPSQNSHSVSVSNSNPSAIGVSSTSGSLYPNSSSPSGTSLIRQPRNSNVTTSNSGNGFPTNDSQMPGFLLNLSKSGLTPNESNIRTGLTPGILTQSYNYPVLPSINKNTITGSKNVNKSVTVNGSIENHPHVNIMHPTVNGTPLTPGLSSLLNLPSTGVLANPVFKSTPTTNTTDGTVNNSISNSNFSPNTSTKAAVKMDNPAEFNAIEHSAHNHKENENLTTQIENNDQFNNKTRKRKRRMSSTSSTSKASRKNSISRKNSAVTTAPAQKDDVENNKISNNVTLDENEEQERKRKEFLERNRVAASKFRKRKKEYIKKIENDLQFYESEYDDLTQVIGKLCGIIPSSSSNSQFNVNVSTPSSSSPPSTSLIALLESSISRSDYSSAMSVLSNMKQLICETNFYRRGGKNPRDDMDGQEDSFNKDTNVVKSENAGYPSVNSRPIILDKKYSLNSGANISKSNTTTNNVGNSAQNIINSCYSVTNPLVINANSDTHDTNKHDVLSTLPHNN
# Experiment: PBM E-score (8-mer binding enrichment) (E-score (-0.5 to 0.5)); higher = stronger / more preferred TF binding; most listed sequences are background and not binding sites
# Conditions: protein concentration: 200 nM; construct: GST-full length
# In short: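 Yeast transcription factors carrying a GST tag, as full-length proteins or DNA-binding domains, were produced by PURExpress in vitro transcription/translation. About 100-200 nM protein was applied to universal all-10-mer Agilent arrays, double-stranded by primer extension on fresh or once-stripped slides. Bound protein was detected with fluorescent anti-GST, and scans were normalised with masliner. The Universal PBM Analysis Suite gave each ungapped eight-base word, pooled with its reverse complement, an E-score, a modified Wilcoxon-Mann-Whitney statistic.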
row,Sequence,PBM E-score
1,GACTGTGC,0.0399
2,CCCCTGCG,-0.215
3,CCGACCCA,-0.361
4,GAAACGAC,0.178
5,AAAAAAAC,0.2
6,ACCCCGTA,-0.0729
7,ACCTAACA,0.056
8,CAAGGACG,-0.129
9,ACTTGAGG,-0.182
10,GCTGCACA,-0.208
11,AGACAGTG,-0.112
12,ATGTCTGG,-0.0872
13,AGAATTCT,0.16
14,CCTGTCGC,-0.329
15,AGGGAATG,-0.0677
16,AGACTTTA,0.0576
17,GAAATCTA,0.102
18,AGCACAGA,0.0216
19,GAATAGCA,0.0421
20,CCTTTTTC,-0.115
21,GTAGTTTA,0.148
22,CACGAGAA,-0.13
23,CTCGTGAA,0.14
24,CCATCGGA,-0.251
25,GACCTAGC,-0.0851

row,Sequence,PBM E-score
1,GCGGTTAA,-0.186
2,GTGAACGA,0.0244
3,GCTTTTAC,0.263
4,CCGGCACA,-0.119
5,AGAGGCCG,-0.217
6,ATATAAAA,0.177
7,ACTTATCT,0.0568
8,ACGGTTTA,-0.0562
9,ATTGATGC,0.0723
10,CGATCGAG,-0.0776
11,GCATAACA,0.156
12,CTGAATCA,-0.0522
13,GCATGGAC,-0.0216
14,CAGACCGG,-0.16
15,CGAGACAC,-0.0858
16,AGGCCAAC,-0.15
17,GTTGTTTA,0.101
18,ATCTTGGA,-0.106
19,ACTCTAGA,0.154
20,CCCTAATC,-0.161
21,ACGAAAGG,0.156
22,CATGCCCA,-0.357
23,GCGGCCGC,-0.285
24,ACGAAGTC,0.0879
25,ACACTCAT,0.131

row,Sequence,PBM E-score
1,CAACGACG,0.128
2,AGCGTGTG,0.0406
3,ATAAACGA,0.204
4,ACGGTCGA,-0.135
5,CGCATGCG,0.0824
6,AACCGTTG,-0.00171
7,CGTGGACA,0.0971
8,ACAGGGCC,-0.279
9,CTAGGAAC,-0.0922
10,CTACAGCC,-0.313
11,AAAACTGC,-0.0189
12,CTGAATGA,0.00842
13,AAAGCCGT,-0.115
14,GCACGGGC,-0.445
15,ATCTTTTA,0.245
16,ACGCGTCT,0.192
17,GACGTCAA,0.47
18,AACCCTAA,-0.0979
19,ATAGAAGG,-0.281
20,AGCCCCTG,-0.282
21,GCAAGTGC,-0.199
22,CTGCGCTC,-0.243
23,AGTGCCCG,-0.249
24,AACGTAAA,0.425
25,ATGATGTG,0.379

row,Sequence,PBM E-score
1,ATAGGTCC,-0.0691
2,AGATTTTC,0.0522
3,CGTCAGAC,0.394
4,CGTCCGAA,0.0395
5,GTCTTTTA,0.0889
6,AACGGCGC,-0.319
7,CACGGCAG,-0.147
8,TCTCGACA,0.0905
9,CTGGTTTA,-0.0494
10,CACCTAAC,-0.0307
11,GCTTTCGA,-0.209
12,AGTACACA,0.0979
13,CCACTTCG,-0.137
14,CAACTGTA,0.116
15,ATGTCAGG,0.0993
16,CCCGAGGA,-0.31
17,ATTGTTTC,0.146
18,CGACGCAG,0.0186
19,TCCCGTAA,0.11
20,AACAGCTG,-0.0414
21,AACTGCAC,0.0155
22,GCTGAAGA,-0.196
23,AGAGAAAG,-0.108
24,CAGCTACC,-0.155
25,CAATCCGG,-0.0752

row,Sequence,PBM E-score
1,ATTGCTCA,0.185
2,AGATTGTG,-0.055
3,ATTTGCTC,-0.157
4,CAGCGGAC,-0.226
5,AAGACAAA,0.254
6,TAAAGGTA,-0.107
7,CTTTGATC,-0.0354
8,CACTAAAG,-0.0266
9,ATTACAAC,0.169
10,ATACCTCA,0.109
11,CTGGATTC,-0.0624
12,CAGCCCTG,-0.176
13,ACTTCCTC,-0.284
14,GCTCCCAC,-0.193
15,AGCTGCCA,-0.168
16,CAAACTAC,0.179
17,CGTTCCGC,-0.102
18,CCAGATCG,-0.0595
19,CGCAACAG,0.201
20,CCCACTTA,0.0109
21,ATTTTCAA,0.149
22,ACATAGAA,-0.0238
23,AAGTCGGC,-0.291
24,ACCAGTCG,0.0271
25,AATTTACG,0.332

row,Sequence,PBM E-score
1,ATCGTGTC,0.0213
2,CAGAGAAA,0.125
3,GGTACGAA,0.19
4,AGGCGAAT,-0.0114
5,GCTCACAC,-0.0342
6,GAGATGCA,-0.0586
7,ATGCTGGG,-0.231
8,CGCTTGAA,0.0677
9,CAATCCCA,-0.15
10,ATACATGG,0.0827
11,ATCAGAGG,0.0108
12,ACGTGAGG,0.276
13,ATTAATGA,0.161
14,AAACAATC,0.0366
15,AGGGGCGC,-0.223
16,AAACTTTC,-0.0546
17,AAGGAGCC,-0.344
18,ACAGGCGT,-0.222
19,ATCTTTAA,0.136
20,ACTTATAT,0.234
21,CTTTGATA,0.0615
22,AGGAGGAG,-0.247
23,CGGTGTTC,-0.134
24,AAAGCCCC,-0.258
25,CCATGCTC,-0.247

row,Sequence,PBM E-score
1,CTCTGTGC,-0.184
2,CAAAAGAA,0.191
3,CAAGATTA,0.11
4,CTTGTCTC,-0.264
5,CAAAGCAG,0.0225
6,CGGTATCA,0.00148
7,CCAACGGG,-0.254
8,AGAACATG,0.0335
9,GACGTCCC,0.217
10,AGGTCGGA,-0.0835
11,CATGTATC,0.171
12,GCCCTTCA,-0.126
13,TGCTTAAA,0.0693
14,TAAACCAA,0.159
15,ATTTACTC,0.091
16,AGCGTAAT,0.366
17,CGGCTGCC,-0.279
18,TCCAGTCA,-0.0884
19,GATTTAGC,-0.0714
20,AGGATGTG,-0.206
21,ACGGGCCG,-0.232
22,ATAGACAT,-0.0372
